Reference: publication PMC4336329 (PLoS ONE, 2015)
About 14,000 (4.5%) of roughly 310,000 compounds showed an effect of 50% or more. The effect is printed as a negative number. The list shows a part of the results.

biological target: human ether-à-go-go-related gene (hERG) potassium channel (human, UniProt Q12809); test: primary screen, population patch clamp on CHO cells stably expressing hERG
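Also: peak tail current of the secondary pulse compared with the same well before compound.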

Sequence of human ether-à-go-go-related gene (hERG) potassium channel (Q12809 whole entry, looked up): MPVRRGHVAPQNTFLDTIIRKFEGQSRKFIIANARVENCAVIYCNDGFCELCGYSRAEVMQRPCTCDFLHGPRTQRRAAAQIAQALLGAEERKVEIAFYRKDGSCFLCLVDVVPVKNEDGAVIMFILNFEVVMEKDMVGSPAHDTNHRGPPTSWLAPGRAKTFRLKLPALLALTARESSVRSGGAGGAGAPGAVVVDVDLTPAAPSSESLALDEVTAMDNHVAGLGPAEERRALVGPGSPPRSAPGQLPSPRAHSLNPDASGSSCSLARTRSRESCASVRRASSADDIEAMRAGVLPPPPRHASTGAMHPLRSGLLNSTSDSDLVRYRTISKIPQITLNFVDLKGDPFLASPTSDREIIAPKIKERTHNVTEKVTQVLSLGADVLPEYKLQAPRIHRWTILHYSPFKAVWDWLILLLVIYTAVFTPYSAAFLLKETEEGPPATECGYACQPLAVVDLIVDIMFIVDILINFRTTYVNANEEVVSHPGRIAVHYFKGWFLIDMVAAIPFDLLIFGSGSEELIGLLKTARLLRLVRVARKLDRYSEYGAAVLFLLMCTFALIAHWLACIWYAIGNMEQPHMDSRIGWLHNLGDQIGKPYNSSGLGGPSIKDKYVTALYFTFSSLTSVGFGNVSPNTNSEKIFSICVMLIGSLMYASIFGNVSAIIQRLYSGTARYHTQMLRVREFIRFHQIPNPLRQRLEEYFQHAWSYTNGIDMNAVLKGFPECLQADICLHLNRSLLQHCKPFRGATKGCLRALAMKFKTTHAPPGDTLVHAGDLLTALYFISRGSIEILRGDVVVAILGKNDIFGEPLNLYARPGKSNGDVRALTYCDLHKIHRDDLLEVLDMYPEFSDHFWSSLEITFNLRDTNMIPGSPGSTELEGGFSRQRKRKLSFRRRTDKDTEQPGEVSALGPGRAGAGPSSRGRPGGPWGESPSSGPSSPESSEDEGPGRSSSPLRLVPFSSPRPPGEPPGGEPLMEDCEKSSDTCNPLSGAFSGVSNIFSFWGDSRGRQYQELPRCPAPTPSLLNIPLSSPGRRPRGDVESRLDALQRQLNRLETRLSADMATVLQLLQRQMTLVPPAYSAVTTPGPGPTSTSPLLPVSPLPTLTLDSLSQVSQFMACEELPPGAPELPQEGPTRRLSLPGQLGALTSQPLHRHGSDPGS

SMILES | hERG current change (%, negative = inhibition) at 10uM
CC(C)Nc1nc(Cl)nc(NN(C)c2nc(N(C)C)nc(N(C)C)n2)n1 | 3.6%
COc1cc(C)nc(N2CCCC(C(=O)Nc3cc(Cl)ccc3OC)C2)n1 (stereo not shown) | 9.96%
CN1CCN(C(=S)NC(=O)/C=C/c2ccccc2Cl)CC1 | 10.9%
Brc1ccc(C2N3CCCN23)cc1 (stereo not shown) | 1.12%
CC(C)(C)NC(=O)c1nn2c(C(F)(F)F)cc(-c3ccccc3)nc2c1Br | 20.8%
Cc1ccc2nc(-c3ccc(S(=O)(=O)N4CCCCC4)cc3)cn2c1 | 14.8%
CCOP(=S)(OCC)SCC(=O)NC(C)(CC)C(=O)O (stereo not shown) | -0.514%
CCN(CC)CC(=O)N1CCCC(N2CCN(c3cccc(C(F)(F)F)c3)CC2)C1 (stereo not shown) | -10.5%
CC(C)(C)NCC(O)COc1cccc2c1CCC(=O)N2.Cl (stereo not shown) | 4.47%
Cc1ccc(S(=O)(=O)N(CC(=O)NCC2CCCO2)Cc2cccc(C)c2)cc1 (stereo not shown) | -60.5%
Cc1ccc(C2CC2/C(=N/O)c2ccc(F)cc2)cc1 (stereo not shown) | 19.5%
Cc1cc(NC(=O)Cc2ccccc2)nc2c1c(=O)oc1ccccc12 | 2.06%
CC1CN=C(N(C(=S)Nc2ccccc2)c2cccc(C(F)(F)F)c2)S1 (stereo not shown) | 8.26%
O=C(COc1ccccc1)Nc1ccc(F)cc1 | 9.12%
CC1CCCCN1S(=O)(=O)c1ccc(C(=O)Nc2nnc(C3=COCCO3)o2)cc1 (stereo not shown) | 1.04%
COC(=O)C1(C)NC(=O)c2ccccc2N1 (stereo not shown) | 5.81%
Cc1[nH]c2ccccc2c1/C=N/O | 30.3%
Cc1ccc(S(=O)(=O)NCC(=O)OC(C)C(=O)c2ccccc2)cc1 (stereo not shown) | -2.84%
CCc1nn(CC(=O)NC2CCN(Cc3ccccc3)CC2)c(=O)c2cc3cc(F)ccc3n12 | -11.8%
O=C1NC(=O)N(CC2CCCO2)C(=O)/C1=C/c1cccs1 (stereo not shown) | 14.1%

SMILES | hERG current change (%, negative = inhibition) at 10uM
COc1cc2c(cc1C1NC(=S)NC(C)=C1C(N)=O)CCCC2 (stereo not shown) | 9.6%
O=c1c2ccccc2nc(CSc2nnnn2-c2ccccc2)n1-c1ccccc1 | 2.18%
CCC(C(=O)c1ccc2ncccc2c1)c1ccccc1 (stereo not shown) | -52.7%
C=CCn1c(=S)[nH]c2nc3c(cc2c1=O)COC(C)(C)C3 | 12.7%
CCC1Oc2ccccc2N(CC(=O)NC2CCCC2)C1=O (stereo not shown) | 1.88%
Cc1ccnc(N/C=C/C(=O)c2ccc(Br)cc2)c1 | 23.2%
O=S(=O)(c1ccc(Cl)cc1)c1nc(-c2ccco2)oc1N1CCOCC1 | -55.4%
COc1ccc2c(=O)c(N3C(=O)c4ccccc4C3=O)c(C)oc2c1 | -7.66%
NC(=O)NC(c1ccc(Cl)cc1)c1ccccc1Cl (stereo not shown) | -2.96%
NS(=O)(=O)c1ccc(-c2ccc(C=C3C(=O)NC(=O)NC3=O)o2)cc1 | 4.09%
CCCCC1S/C(=N/N=C/c2ccc(OC)cc2)N(Cc2ccc(OC)cc2)C1=O (stereo not shown) | 6.95%
O=C(O)Cc1c[nH]c2cccc(O)c12 | 9.84%
COc1ccc([C@H]2CC(=O)C=C(C#CC(C)(C)C)C2)cc1 | -9.24%
CCOC(=O)c1nc(NCc2ccccc2F)c2ccccc2n1 | -9.15%
COc1ccc(CN=Cc2c(C(F)(F)F)[nH][nH]c2=O)cc1 | 10.8%
O=c1c2ccccc2nnn1COc1ccc(Cl)cc1Br | 22.2%
Cc1cc(=O)n2nc(N3CCCC(C(=O)N4CCOCC4)C3)sc2n1 (stereo not shown) | 3.1%
c1ccc(SCc2nc3ccccc3[nH]2)cc1 | -9.85%
O=S1(=O)CCN2C(=N1)Sc1c2ccc2c1CCCC2 | 6.41%
C=CCn1c(-c2csc(-c3ccc(Cl)cc3)n2)n[nH]c1=S | 10.7%

SMILES | hERG current change (%, negative = inhibition) at 10uM
Cc1cccc(NC(=O)c2nc[nH]c2C(=O)Nc2ccccc2[N+](=O)[O-])c1 | 13.5%
NNC(=O)c1cccn(Cc2cccc(C(F)(F)F)c2)c1=O | 21.5%
CC1CCN(C2=C(NS(=O)(=O)c3ccc(Cl)cc3)C(=O)c3ccccc3C2=O)CC1 | -8.29%
Cc1ccc(/C=N/NC(=O)CSc2nc3ccccc3n2C)s1 | -17.4%
COCCN(C(=O)CN1CCc2ccccc2C1)c1c(N)n(Cc2ccccc2)c(=O)[nH]c1=O | -3.43%
CCOCCCNC(=O)C(NC(=O)Cc1cccs1)c1ccc(Cl)cc1 (stereo not shown) | -0.0503%
Cc1ccc(OCC(=O)NCc2cccs2)cc1 | -1.85%
COc1ccccc1CN1Cc2cccc3c2[C@@H](CC1=O)[C@H](O)[C@H](O)C3 | 4.43%
Cc1ccc(/C(N)=N/OC(=O)CCC2CCCCC2)cc1 | -10.7%
O=C(Nc1ccc(C(=O)O)cc1)/C(=C\c1ccc2c(c1)OCO2)NC(=O)c1ccc(Br)o1 | 17.6%
O=C(c1cc(-c2ccccn2)nc2ccc(Br)cc12)N1CCN(S(=O)(=O)c2ccccc2)CC1 | 1.37%
COC(=O)c1sc(NC(=O)c2ccc([N+](=O)[O-])o2)c(C#N)c1C | 12.3%
O=C(Nc1cc(C(F)(F)F)ccc1F)C1CCCC1 | 14.7%
CN(C(=O)c1cccc(C#N)c1)c1nnc(-c2cnccn2)s1 | -3%
CCN1/C(=C\C=C2\C(=O)N(C)C(=S)N2C)Sc2ccccc21 | 24%
CN(C(=O)COC(=O)c1ccccc1Nc1ccccc1)C1CCS(=O)(=O)C1 (stereo not shown) | -41.4%
Oc1ccc(/C=N/Nc2ccc(C(F)(F)F)cn2)c(O)c1 | 25.3%
Cc1ccc(OCc2cc(C(=O)N(C)CCc3ccccn3)no2)cc1C | -33.6%
